# According to the supplement of paper PMC11417369:
# This is one part of the list.
# Tested on: PF3D7_0420300 AP2 domain 1 (GST-tagged)
# Test: gcPBM binding intensity (ln(normalized median fluorescence intensity)); higher = stronger DNA binding
# Outline: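 Plasmodium falciparum DNA-binding domains carrying a GST tag were expressed in E. coli and applied for 1 h, at about 25 μg on average, to an Agilent 4 × 180k array. The array held primer-extended double-stranded 36-bp intergenic genomic probes together with negative controls, and binding took place in 1× PBS with 1% milk, 0.2 mg/ml BSA, 0.5% salmon testes DNA and 0.03% Triton X-100. An Alexa488 anti-GST antibody detected bound protein, and the array was scanned at 488 nm. Binding intensity is taken as the highest Masliner-normalised natural-log median intensity across replicate spots of either probe orientation.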
row,Sequence,gcPBM binding intensity (ln)
1,ATTCGTCACATTTTTTGATATATATATATATATATA [CACACA_negctrl_site1785],9.41
2,AATATATAAATGTTGTGTACTAAGCAATATATTTTA [XGTACX_site2483],9.32
3,CTATTATCGGTTCCTACACACAAATATATATGTCTA [CACACA_site3579],9.87
4,ATATAGTTGTCATATTGTACACTTTAGGGTTGGTTA [XGTACX_site7339],9.31
5,CAATGGTACATACATACACACACACTAATAAAAAAA [CACACA_site8450],9.94
6,TACAATCCATATTGTTGTACATTTATAAAATTTACA [XGTACX_site3053],8.97
7,GTATATATATAAGAAGAAATATATAAATAAAATATA [CACACA_negctrl_site503],9.34
8,TATTATGTTTATTAAACATGCATATATTTATTTATA [TGCATGCA_site187],9.15
9,ATATTTTATCATGTTTAATATTTATGTGGACATAAA [GTGCAC_negctrl_site275],9.11
10,ACATTTTATATATGTAGTACATATTATAGATAATTT [XGTACX_site1976],9.12
11,AGTTGGATACGAAGATGTACAATAATAATAATTAAG [XGTACX_site3561],9.33
12,ATCAAAAACATACCTACACACACAATATGTATATAT [CACACA_site9171],10
13,TATTTTATTTTTTTATGTACACAAAAAAAAAAAAAA [XGTACX_site945],8.63
14,TCACTATAATAATTTACACACATTTTAAGAAAATGG [CACACA_site5867],9.25
15,AAGGATAATATATTAGAACACACATATATATGTAAA [CACACA_site7942],9.56
16,TTTATATAAAATTATTGTACAGTTTTAATATTTTAA [XGTACX_site6807],9.01
17,TACATACACAAATACACACACAAATACATACACAAA [CACACA_site704],10.1
18,TAAACAAATAAATATTGTACATTTTTTCCTTTTAAT [XGTACX_site5594],9.04
19,CACAGACACGGACACACACACATATATAATATATAT [CACACA_site4495],9.98
20,AAGATATGAACATTTTGTACTTAAAAATTCAATATT [XGTACX_site7103],9.01
21,GATTATACAAAATATACACACGTGTACAGAAATATT [CACACA_site8305],9.56
22,ATATATTTATTTATATGTACATATTATATATTATAG [XGTACX_site3371],9.35

row,Sequence,gcPBM binding intensity (ln)
1,TTATATTAATTTTGTTGTACTATTTGTGCATTAAAT [XGTACX_site4790],9.21
2,TTTATTAATTTATAGTGTACATATTAATAATATATT [XGTACX_site7949],9.09
3,ATATATATTATATATTGTACATATTATATTCATTAT [XGTACX_site1766],9.27
4,AAAAAATAAAACATATATAATATATAATATATATAT [GTGCAC_negctrl_site447],9.23
5,AATGTGAAAACGTGTACACATTTTATTTAATTTATC [CACACA_site5966],9.28
6,ATAAATTATATTATTGAACACACGTTTGGTAATGTT [CACACA_site2662],9.3
7,AAAAAAATAATAAAAAGTACAAAATGTAGAAAATGT [XGTACX_site5018],9.91
8,AAGTTATTTATATATACACACAAATATAAATAATAT [CACACA_site1228],9.57
9,ATTATAATTACTCTAGTGCATTATAAATATGAATAA,8.93
10,CTCAAATTTATTAGTGGTACATAACCAAGGAAATAA [XGTACX_site225],9.01
11,CCTAGAAAAAAGAACTGTACATATATATATAAATAT [XGTACX_site1680],9.25
12,TTAATTGAAACTTATTGTACTTTTTTTTTTTTTTTT [XGTACX_site8162],8.89
13,ATAAATAAAAATAGAACACACATATGTTTTTTTTTT [CACACA_site3556],9.39
14,TGAAAAAATATAATTTGTACATATCAGGCAAAAATG [XGTACX_site1824],9.35
15,ATATGCAGAGACTGTTTGCACTTTTTTATTTTATGT [GTGCAC_site9695],9.45
16,AGGACAAGGGTTACATGTACATATATATATATATAT [XGTACX_site901],9.96
17,TATTAATAATTAAGTTGTACATTAATTAATATACTG [XGTACX_site6994],9.16
18,TTTAATATTAATAATTGTACATTTTCATAAATACGC [XGTACX_site2837],8.95
19,TTTAAACCTTAATATTGTACGCAAAAAAAAAAAGAA [XGTACX_site3757],9.19
20,TTTATGTAGGAACTAACACACATTGTAAGATTCAGA [CACACA_site1998],9.3
21,GGAACTTTTGGAGGTGCATGCGGAGCAATCTTTTCA [TGCATGCA_site454],9.05
22,CATATCAATAATATCACACATATATGTGATTTTATT [CACACA_site5053],9.28

row,Sequence,gcPBM binding intensity (ln)
1,TTATTAATTTATAAATGTACGAATTTTTTATTTAAC [XGTACX_site7605],8.97
2,CCCCTTAATTAAAGGAGTACTATTTGTGAATAATAT [XGTACX_site4715],9.48
3,TATAAATATAAAAGGAGTACAAATATATATATATAT [XGTACX_site1386],9.44
4,AGTTATAATAAAAAATGTACGTATTATCATTAAGAA [XGTACX_site4244],9.29
5,TTTTTTTTTATAGCTAAACACACATAAGAATATATG [CACACA_site8282],9.14
6,AAAAAAATTAAACATACACACGTTACTATTTTTATA [CACACA_site5009],9.34
7,GAAAATAAAAAATATGAACACACATATATAACAAAA [CACACA_site7975],9.82
8,TCCTAATATATGTATGCACACACAATATATACATAT [CACACA_site9111],9.64
9,AAAATTGATATATGCACACATATATATATTAAATAT [CACACA_site763],9.29
10,TTTCATTCTGGTATCACACATTTATTTTCTAGTTTA [CACACA_site4286],9.63
11,AAAAAAAAAAAAAACACACATACACATATATTTTTA [CACACA_site3893],9.45
12,AAAATATAAATTCATGTGCACATATATATTTTGTTA [GTGCAC_site9782],9.23
13,AGGAAAAAATCGAGTAGTACACATTTAGAAATATAA [XGTACX_site8019],9.28
14,ATATCACATATATATATATATATATATATATATATA [XGTACX_negctrl_site463],9
15,AACAAGGCCCGGTACTGTACATTTTTTCATAACATT [XGTACX_site6134],9.49
16,GTATGTATATTTATCTGTACATATTTATGTATTCTT [XGTACX_site2112],9.54
17,TATATACATATATACACACACATATATTATATATAT [CACACA_site275],9.75
18,AATTATACTCACGTTACACACACACTATATATATAT [CACACA_site9375],10.2
19,TCAAAATGTTACAAATTATGTTGGCTAAAATTTTAA [TGCATGCA_negctrl_site188],8.92
20,TTGAACCTGATAAATACACACAATATAGATTTTTTT [CACACA_site7091],9.29
21,ACACATATAAATAAAACATGCATATGTAAATATATA [TGCATGCA_site403],9.56
22,TATAATATAATATTTTGTACATATGATAAAAAAAAA [XGTACX_site6858],9.13

row,Sequence,gcPBM binding intensity (ln)
1,AAATATATCTTCTTTGCACACTTAAAGGGAAGTGAT [CACACA_site343],9.08
2,AGATATATTTTTTAAATTTAAAAATTATAAAATTTA [CACACA_negctrl_site533],8.69
3,ACAATAATTTCCATCACACATATATTTATATATTAC [CACACA_site6003],9.45
4,TTGCATCTACATTTATGTACATATCTTATGATAAAT [XGTACX_site2146],9.24
5,ATACATATTCTTATTTGTACTTATTATAAAATGGTC [XGTACX_site6584],9.19
6,TAACTGATATATAAAACACACATCATAAAAATATAA [CACACA_site6499],9.49
7,GATAGAAAAAAATAATGTACACACACATATATGTTT [XGTACX_site392],9.72
8,TTTCTTTTTTCTGTTATTATTATAAAACGATATTTA [TGCATGCA_negctrl_site167],9.29
9,TACACATACCCATACACACGCATAGAAACATACGAA [CACACA_site5212],9.61
10,TATTTTTATTTTAATTGTACTTTTTAATTAATAATA [XGTACX_site8302],9.05
11,GCTGAAAGGATAAAGGTGCATATTTTTTAAAAAATT [GTGCAC_site9487],9
12,AATATTTTATATGTAGTGCATTACTATAGGATTTAT [GTGCAC_site9424],9.18
13,TTTTTTTTTTTTATATGTACTAATAATCTTTTTTTT [XGTACX_site3552],9.14
14,TGCTTATATCTTATAATATTTATACATCATAATAAG [CACACA_negctrl_site629],9.17
15,TGTGTCAAATAATTAATGTCATATATATTTTGTATA [CACACA_negctrl_site1479],9.2
16,ACAAAATAAACGGCTGCACACAAGAAGCACAATATT [CACACA_site3690],9.99
17,GCATATAAAATAAATCGTACATGTAAAACATAATTA [XGTACX_site7077],9.2
18,TTTCAATAATAAAAAACACACACAAAAAAAAATAAT [CACACA_site8905],10.1
19,AAAAATATAAACACCAGTACACAAACCTATAATGGA [XGTACX_site3846],9.84
20,AAAGTAAATTTAAGCACACACAACGAATTTTTATAC [CACACA_site1959],9.94
21,AATATATGGTTTCATGATATTAAATACAATTTAATG [CACACA_negctrl_site1503],9.03
22,ATATATATATGTATATGTACTTATATTATTGTTTGT [XGTACX_site1466],9.44
